Data: PMC12040169 (PLOS Biology, 2025)
This is one part of the list.

Tested on: T1, C. trachomatis L2/434/Bu expressing GFP (CTL2-GFP)
T1 construct: L2/434/Bu GFP intracellular growth in HeLa cells
Parameters: species or system HeLa; C. trachomatis total inclusion area by high-content imaging, normalised to DMSO
Settings: total inclusion area; 28.5 h, 10 µM; inhibitor
Text: In this process, we also complemented the assay described above with an imaging-based readout (Fig 1B). After measurements of bulk GFP and resorufin fluorescence, cells were fixed, stained with the DNA dye Hoechst, and imaged at a high-content imaging platform to detect chlamydial inclusions (GFP) and host cell nuclei (Hoechst). The total area and number of inclusions in individual wells and the number of nuclei then served as additional proxies for chlamydial growth and host cell viability. […] MICs were calculated as described above.

| SMILES | % of control remaining |
| --- | --- |
| Nc1nonc1OCC(COc1nonc1N)(COc1nonc1N)COc1nonc1N [CBK011044] | 123.35 |
| O=P(O)(O)CCCc1ccccc1 [CBK012021] | 85.4295 |
| CC1(C)CC(=O)C(C2(O)C(=O)Nc3ccc(Br)cc32)CO1 (stereo not shown) [CBK263410] | 109.345 |
| CN(C)C(=O)Oc1cc(CN2CCCC2)c2ccn(S(=O)(=O)c3ccccc3)c2c1 [CBK137151T] | 76.0582 |
| O=C(Nc1ccc2c(c1)OC(F)(F)O2)c1nn(Cc2ccc(-c3csnn3)cc2)c2ccccc12 [CBK047877] | 73.6247 |
| CC(C)CN(/C=N/c1nc(OC(=O)N(c2ccccc2)c2ccccc2)nc2c1ncn2C1CC(O)C(CO)O1)CC(C)C (stereo not shown) [CBK201170] | 109.912 |
| Cc1ccc(Cn2nc(C(=O)NCC3COc4ccccc4O3)c3ccccc32)cc1 (stereo not shown) [CBK047831] | 95.9186 |
| COc1ccc(OC(=O)Nc2nn(Cc3ccc(C#N)cc3)c3ccc(C)cc23)cc1 [CBK048654] | 99.292 |
| O=C(N[C@H]1CCN2C(=O)N(CCCl)C(=O)[C@@H]2C1)c1cccs1 [CBK289542] | 88.1819 |
| O=C(Nc1ccc(OC(=O)N2CCCCC2)cc1)N1CCCCC1 [CBK090060] | 57.9584 |
| Cc1nnsc1C(=O)N[C@H]1CCN2C(=O)N(CCCl)C(=O)[C@@H]2C1 [CBK289550] | 105.228 |
| CC(C)C(Nc1c([N+](=O)[O-])cc(C(F)(F)F)cc1[N+](=O)[O-])C(=O)O (stereo not shown) [CBK261041] | 95.8215 |
| Cc1ccc(Cn2nc(NC(=O)Oc3ccccc3)c3ccccc32)cc1 [CBK048407] | 119.111 |
| O=C(/C=C/c1ccc(N2N=N2)cc1)/C=C/c1ccc(N2N=N2)cc1 [CBK261638] | 97.7808 |
| CC1CN(C(=O)COc2ccccc2OC(=O)N(C)C)CC(C)O1 (stereo not shown) [CBK057627] | 34.0882 |
| CCC(=O)N(C[C@H]1CCC[C@@H]1N(C)C)c1ccc(Cl)c(Cl)c1 [CBK003408] | 84.0379 |
| Cc1c([N+](=O)[O-])c([N+](=O)[O-])nn1CC(=O)NCc1cccnc1 [CBK262428] | 109.919 |
| CN(C)C(=O)Oc1ccc2[nH]c3c(c2c1)CCNC31CCN(CCOc2ccccc2)C1 (stereo not shown) [CBK107679] | 92.2695 |
| S=C(Nc1ccc2nc3c4ccccc4c4ccccc4c3nc2c1)N1CCOCC1 [CBK263153] | 70.269 |
| O=C(O)Cn1cc(C(=O)c2cccs2)c2ccccc21 [CBK287110] | 95.5865 |
| O=C(O)c1cccc(NC(=O)c2cc([N+](=O)[O-])cc([N+](=O)[O-])c2)c1 [CBK261555] | 107.852 |
| O=C(NO)Nc1ccc(Cl)c(Cl)c1 [CBK016929] | 9.766 |
| CC(N)Cc1cn(C)c2ccccc12 (stereo not shown) [CBK012030C] | 19.7769 |

| SMILES | % of control remaining |
| --- | --- |
| O=C(O)c1cc(NC(=O)c2ccc3c(c2)C(=O)N(Cc2ccco2)C3=O)cc(C(=O)O)c1 [CBK267374] | 135.449 |
| CS(=O)(=O)c1ccc(-c2ccc3c(c2)CCN(C2CCN(C(=O)Oc4ccccc4)CC2)C3)cc1 [CBK169518] | 66.2463 |
| O=C(NN=C1CCCCC1)C(O)(c1ccccc1)c1ccccc1 [CBK261783] | 107.444 |
| Cc1cccc(CNC(Cc2ccsc2)c2nccs2)n1 (stereo not shown) [CBK282697] | 113.435 |
| CONC(=O)c1nn(Cc2ccc(C)cc2)c2ccccc12 [CBK047848] | 42.6534 |
| O=P(O)(O)/C=C(\Cl)c1ccccc1 [CBK261019] | 71.9927 |
| O=C(N[C@H]1CCN2C(=O)N(CCCl)C(=O)[C@@H]2C1)c1ccncc1 [CBK289551] | 103.405 |
| CCCN(CCCc1ccccc1)C1Cc2cc(OC)c(OC)cc2C1 [CBK017596C] | 86.2942 |
| O=C(NC1CC1)c1nn(Cc2ccc(S(=O)(=O)N3CCCCC3)cc2)c2ccccc12 [CBK047820] | 96.5136 |
| COc1cc(C(=O)N2CCC(N3C(=O)Cc4ccccc43)CC2)ccc1C [CBK155465] | 66.3226 |
| CSc1nnc(C(N)Cc2c[nH]c3ccccc23)o1 (stereo not shown) [CBK269950C] | 97.9978 |
| CS(=O)(=O)c1ccc(-c2ccc3c(c2)OCCN(C2CCN(C(=O)Oc4ccccc4)CC2)C3)cc1 [CBK169259] | 92.126 |
| CN(C)[C@@H]1C[C@H](C2(c3ccccc3)OCCO2)CC[C@H]1N(C)C(=O)Cc1ccc(Cl)c(Cl)c1 [CBK016338] | 29.7984 |
| O=C(O)CCCNC(=O)C(O)(c1ccccc1)c1ccccc1 [CBK269156] | 100.279 |
| O=P(Nc1ccc(Cl)c(Cl)c1)(Nc1ccc(Cl)c(Cl)c1)Oc1ccc(Cl)cc1 [CBK263487] | 94.2998 |
| NC(=O)C(=O)c1cn(Cc2ccccc2)c2ccccc12 [CBK288473] | 46.1765 |
| COc1ccc([C@]23CC[C@H](NC(=O)Nc4ccc(C#N)c(Cl)c4)C[C@H]2N(C)CC3)cc1OC [CBK066928T] | 93.6436 |
| CNC(=O)Oc1ccc(C)cc1C(=O)N(C)C [CBK012319] | 89.2363 |
| O=[N+]([O-])c1ccc(-n2cnc3ccccc32)c([N+](=O)[O-])c1 [CBK261120] | 10.5554 |
| O=C(O)C1C2CCC(O2)C1C(=O)NC1CCCCC1 (stereo not shown) [CBK286848] | 77.6969 |
| Cc1cn(-c2ccc(OC(=O)NC(C)(C)C)c(Cl)c2)c(=O)n1C [CBK025991] | 52.2786 |
| O=C(O)CP(=O)(O)c1ccc(Cl)cc1 [CBK019291] | 96.8433 |
| COC(=O)c1nn(Cc2ccc(OC)cc2)c2ccccc12 [CBK093526] | 3.397 |
